# Assay results: PMC6919601, “Identification of Plasmodium dipeptidyl aminopeptidase allosteric inhibitors by high throughput screening” (PLoS ONE, 2019)
# Hit rate of the full screen: of about 110,000 compounds, about 230 (0.21%) showed an effect of 50% or more. The list shows a part of the results.
# Target: DPAP1 (Plasmodium falciparum, UniProt Q8IIJ9)
# Assay: primary screen, percent inhibition; read by cleavage of a fluorogenic dipeptide substrate; higher = more effect of the substance
# Parameters: species or system P. falciparum D10 trophozoite lysates; single well
# 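Note: 30 min substrate incubation versus DMSO and 10 µM JCP410 controls.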
# Sequence of DPAP1 (Q8IIJ9 whole entry, looked up): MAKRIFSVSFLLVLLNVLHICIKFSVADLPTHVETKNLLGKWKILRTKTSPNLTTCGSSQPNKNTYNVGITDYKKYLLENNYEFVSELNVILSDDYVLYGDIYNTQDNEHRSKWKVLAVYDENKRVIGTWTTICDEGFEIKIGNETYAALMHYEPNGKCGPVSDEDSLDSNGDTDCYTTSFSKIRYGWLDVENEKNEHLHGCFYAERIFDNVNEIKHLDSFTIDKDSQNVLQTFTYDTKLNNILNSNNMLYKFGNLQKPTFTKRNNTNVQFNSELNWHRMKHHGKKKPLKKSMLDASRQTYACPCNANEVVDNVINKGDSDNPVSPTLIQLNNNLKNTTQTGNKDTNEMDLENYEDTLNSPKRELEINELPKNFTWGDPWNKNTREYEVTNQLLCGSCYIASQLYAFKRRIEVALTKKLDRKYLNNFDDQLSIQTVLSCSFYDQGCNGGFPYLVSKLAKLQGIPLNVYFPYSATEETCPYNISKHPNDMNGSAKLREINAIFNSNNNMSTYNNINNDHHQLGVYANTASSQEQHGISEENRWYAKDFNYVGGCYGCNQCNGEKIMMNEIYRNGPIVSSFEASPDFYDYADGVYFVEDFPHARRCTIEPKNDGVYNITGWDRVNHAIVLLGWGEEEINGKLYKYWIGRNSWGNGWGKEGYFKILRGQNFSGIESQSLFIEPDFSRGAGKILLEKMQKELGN
row,SMILES,% Inhibition @ 10 uM
1,COCCNC(=O)C1CCN(c2nnc(C)c3c(C)n(-c4ccc(Cl)cc4)nc23)CC1,1.91%
2,O=C(O)Cn1c(SCCOc2ccc(Cl)cc2)nc2ccccc21,-5.31%
3,O=C(Nc1nc2ccccc2s1)c1cncc(Br)c1,2.02%
4,Cc1ccc(C/N=c2/c(-c3ccc(Cl)cc3)c(O)c2=O)o1,-2.92%
5,O=C(CN1C(=O)c2cccc3cccc1c23)Nc1ccc(S(=O)(=O)Nc2ccc(F)cc2)cc1,-2.03%
6,CCOc1ccc(S(=O)(=O)NCC2CCCO2)c2cccnc12 (stereo not shown),3.54%
7,O=S(=O)(NCC1CCCO1)c1ccc(-n2cccn2)cc1 (stereo not shown),-1.08%
8,CCN(Cc1ccccc1)S(=O)(=O)c1cc2nc(O)c(O)nc2cc1C,-0.401%
9,COc1cc(-c2nc(O)c3c(n2)Oc2ccc(C)cc2C3)cc(OC)c1OC,3.92%
10,Cc1ccc(-c2noc(CN(C(=O)C(C)(C)Oc3ccc(Cl)cc3)C(C)C)n2)cc1,-1.54%
11,O=C(Nc1scc(-c2ccccc2)c1C(=O)O)c1ccccc1,-1.37%
12,CCOCCCNC(=O)c1cnn2c(C)c(Cc3cc(C)ccc3C)c(C)nc12,2.9%
13,Cc1cc(NC(=O)CSc2nc3nncc-3c(O)n2-c2ccccc2C)[nH]n1,-3.21%
14,Cc1sc(NC(=O)C2CCCCC2)c(C#N)c1C,2.38%
15,CC1=CC(C)C2(CO)COC(c3ccc(N(C)C)cc3)C1C2C (stereo not shown),-4.03%
16,O=C(CSc1nc2ccccc2s1)Nc1ccc(Cl)cn1,-5.14%
17,COc1ccc(OCc2ccc(C3C(C#N)=C(N)Oc4[nH]nc(C)c43)cc2OC)cc1 (stereo not shown),1.57%
18,OCC#CCSc1ncnn1-c1ccccc1,3.38%
19,CCCCc1[nH]nc2c1C1(CCN(C)CC1)C(C#N)=C(N)O2,-0.105%
20,Cc1cc(OCC(O)CN2CCN(C)CC2)ccc1C(C)C (stereo not shown),3.44%
21,CCOC(=O)C1=C(CN2CC=C(c3ccccc3)CC2)NC(=O)NC1c1ccc(C)cc1 (stereo not shown),-5.16%
22,COc1cc(/C=N/CCNS(=O)(=O)c2ccc(C)cc2)ccc1O,-5.87%
23,CCOc1ccc(C(=O)CCNC(C(=O)O)C(C)CC)cc1 (stereo not shown),71%
24,COc1ccc(C2C(C#N)=C(N)Oc3c2c(C)nn3-c2ccccc2)cc1OC (stereo not shown),-6.59%
25,O=C(OCCN1C(=O)c2ccccc2C1=O)N1CCOCC1,12.6%
26,C=CCn1c(CSc2nc(N)cc(N)n2)nnc1SCC(=O)NC1CCCCC1,3.33%
27,CN(C)CCN(C)Cc1coc2ccccc2c1=O,-3.27%
28,COc1ccc(C2Nn3c(nnc3-c3ccccc3)SC2C(=O)N2CCOCC2)cc1 (stereo not shown),-1.72%
